The target of test [1] is E2F2 in pGBT9B (GAL4 DNA-binding domain fusion) (human) (UniProt Q14209). Briefly: two-hybrid; GAL4-based; GAL4 DBD-E2F bait in pGBT9B in yeast together with DP1; preys are clones from a BD Matchmaker Human Testis Library (screen with E2F6, clones retested against E2Fs 1-4 and E2F6).
The target in test [2] is GAL4 DNA-binding domain (DBD)-E2F6 fusion (human) (UniProt O75461). Described as above.
Test [3] addresses E2F1 in pGBT9B (GAL4 DNA-binding domain fusion) (human) (UniProt Q01094). Described as above.
Test [4] concerns the target E2F4 in pGBT9B (GAL4 DNA-binding domain fusion) (human) (UniProt Q16254). The test is described as above.
In test [5] the target is E2F3 in pGBT9B (GAL4 DNA-binding domain fusion) (human) (UniProt O00716). The description is as above.
For another test, the target named is HA-tagged E2F6 (human) (UniProt O75461). Briefly: co-IP; plasmids co-transfected into 293 (293T in Figure 3C) cells; IP with antibodies to HA, DP1, BAF155 or BAF180; lysis buffer 50 mM Tris-HCl pH 7.4, 150 mM NaCl, 1 mM EDTA, 1% Triton X-100.
In a further test the target is HA-tagged E2F3 (human) (UniProt O00716). The description is as above.
The target in test [6] is DP1 expressed in 293 cells (UniProt Q14186). The description is as above.
In another test the target is HA-tagged E2F4 (human) (UniProt Q16254). The description is as above.
The target in another test is HA-tagged E2F2 (human) (UniProt Q14209). The test is described as above.
The target of test [7] is BAF155 expressed in 293 cells (UniProt Q92922). The test is described as above.
Test [8] concerns the target BRG1 overexpressed in T98G cells (human) (UniProt P51532). Description: co-IP; BRG1 and E2F6 co-transfected into T98G cells; IP with a monoclonal antibody to BRG1; lysis buffer 50 mM Tris-HCl pH 7.4, 150 mM NaCl, 1 mM EDTA, 1% Triton X-100.
For a further test, the target named is Flag-tagged BAF180 (UniProt Q86U86). Description: co-IP; plasmids co-transfected into 293 (293T in Figure 3C) cells; IP with antibodies to HA, DP1, BAF155 or BAF180; lysis buffer 50 mM Tris-HCl pH 7.4, 150 mM NaCl, 1 mM EDTA, 1% Triton X-100.
Test [9] addresses GST-E2F6 recombinant protein (human) (UniProt O75461). Briefly: pull-down; GST or GST-E2F6 on GST-Sepharose beads incubated with [35S] methionine-labeled in vitro translated BRG1 in TBS/1% Triton X-100 at 4°C; autoradiography; only the target purified.
Test [10] concerns the target endogenous E2F6 (human (endogenous in 293)) (UniProt O75461). Description: co-IP; endogenous proteins, asynchronously growing 293 cells, no transfection; IP with a polyclonal antibody to E2F6, blot for BRG1.

Protein sequences, listed by entry. Tags and fused reporters are not part of them. Lines headed by an entry give the natural chain unless they say otherwise; changes in a name come on top. Residues count along the entry.
UniProt Q14209: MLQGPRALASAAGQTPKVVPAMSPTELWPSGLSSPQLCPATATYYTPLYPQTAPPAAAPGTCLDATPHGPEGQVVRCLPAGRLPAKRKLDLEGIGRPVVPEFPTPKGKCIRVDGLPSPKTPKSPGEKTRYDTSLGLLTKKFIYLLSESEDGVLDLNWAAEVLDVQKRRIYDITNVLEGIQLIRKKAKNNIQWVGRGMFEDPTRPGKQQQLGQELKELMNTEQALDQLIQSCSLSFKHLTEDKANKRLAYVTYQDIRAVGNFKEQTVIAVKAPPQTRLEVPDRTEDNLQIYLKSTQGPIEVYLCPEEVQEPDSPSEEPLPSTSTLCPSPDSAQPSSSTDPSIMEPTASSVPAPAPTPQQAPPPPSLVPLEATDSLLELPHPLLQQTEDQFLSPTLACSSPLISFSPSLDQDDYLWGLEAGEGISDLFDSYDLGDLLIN
UniProt O75461: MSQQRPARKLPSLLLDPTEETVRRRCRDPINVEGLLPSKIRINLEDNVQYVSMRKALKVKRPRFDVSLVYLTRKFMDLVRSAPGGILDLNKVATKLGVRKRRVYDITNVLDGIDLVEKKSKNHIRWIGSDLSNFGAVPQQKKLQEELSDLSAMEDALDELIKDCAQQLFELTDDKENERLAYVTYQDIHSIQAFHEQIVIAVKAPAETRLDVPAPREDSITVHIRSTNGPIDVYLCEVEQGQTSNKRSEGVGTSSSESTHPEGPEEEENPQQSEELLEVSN
UniProt Q01094: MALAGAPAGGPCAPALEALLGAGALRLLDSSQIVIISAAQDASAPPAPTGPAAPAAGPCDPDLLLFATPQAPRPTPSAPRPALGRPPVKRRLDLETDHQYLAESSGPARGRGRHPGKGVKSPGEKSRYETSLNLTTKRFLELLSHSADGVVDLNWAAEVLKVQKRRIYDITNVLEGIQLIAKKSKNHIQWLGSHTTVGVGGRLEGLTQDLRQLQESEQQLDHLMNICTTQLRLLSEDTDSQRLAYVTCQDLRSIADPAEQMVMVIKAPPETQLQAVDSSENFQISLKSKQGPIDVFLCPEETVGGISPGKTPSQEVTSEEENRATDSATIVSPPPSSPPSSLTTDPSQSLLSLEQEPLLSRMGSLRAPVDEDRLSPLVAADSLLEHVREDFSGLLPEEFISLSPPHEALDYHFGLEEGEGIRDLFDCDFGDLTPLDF
UniProt O00716: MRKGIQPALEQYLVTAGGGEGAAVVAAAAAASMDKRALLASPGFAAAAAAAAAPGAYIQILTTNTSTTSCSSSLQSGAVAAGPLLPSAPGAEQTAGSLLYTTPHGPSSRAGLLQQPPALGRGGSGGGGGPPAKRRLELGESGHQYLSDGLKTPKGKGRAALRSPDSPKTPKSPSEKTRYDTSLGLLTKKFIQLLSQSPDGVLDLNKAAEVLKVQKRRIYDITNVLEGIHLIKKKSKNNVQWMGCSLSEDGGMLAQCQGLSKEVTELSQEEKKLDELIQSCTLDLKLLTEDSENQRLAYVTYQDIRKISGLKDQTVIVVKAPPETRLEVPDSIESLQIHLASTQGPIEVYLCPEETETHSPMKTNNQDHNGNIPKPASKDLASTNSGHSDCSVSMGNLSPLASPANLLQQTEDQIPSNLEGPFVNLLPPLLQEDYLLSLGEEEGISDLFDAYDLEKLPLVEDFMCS
UniProt Q14186: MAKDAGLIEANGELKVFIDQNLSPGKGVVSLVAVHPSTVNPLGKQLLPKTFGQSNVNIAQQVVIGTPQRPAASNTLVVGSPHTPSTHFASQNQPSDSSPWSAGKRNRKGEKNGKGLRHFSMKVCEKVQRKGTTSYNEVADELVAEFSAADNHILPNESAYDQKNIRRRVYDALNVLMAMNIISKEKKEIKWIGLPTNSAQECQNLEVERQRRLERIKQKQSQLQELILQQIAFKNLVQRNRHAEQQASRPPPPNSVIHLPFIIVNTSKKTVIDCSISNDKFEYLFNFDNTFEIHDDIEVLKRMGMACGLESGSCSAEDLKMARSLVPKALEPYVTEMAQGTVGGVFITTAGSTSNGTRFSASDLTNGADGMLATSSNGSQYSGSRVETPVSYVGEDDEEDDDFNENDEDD
UniProt Q92922: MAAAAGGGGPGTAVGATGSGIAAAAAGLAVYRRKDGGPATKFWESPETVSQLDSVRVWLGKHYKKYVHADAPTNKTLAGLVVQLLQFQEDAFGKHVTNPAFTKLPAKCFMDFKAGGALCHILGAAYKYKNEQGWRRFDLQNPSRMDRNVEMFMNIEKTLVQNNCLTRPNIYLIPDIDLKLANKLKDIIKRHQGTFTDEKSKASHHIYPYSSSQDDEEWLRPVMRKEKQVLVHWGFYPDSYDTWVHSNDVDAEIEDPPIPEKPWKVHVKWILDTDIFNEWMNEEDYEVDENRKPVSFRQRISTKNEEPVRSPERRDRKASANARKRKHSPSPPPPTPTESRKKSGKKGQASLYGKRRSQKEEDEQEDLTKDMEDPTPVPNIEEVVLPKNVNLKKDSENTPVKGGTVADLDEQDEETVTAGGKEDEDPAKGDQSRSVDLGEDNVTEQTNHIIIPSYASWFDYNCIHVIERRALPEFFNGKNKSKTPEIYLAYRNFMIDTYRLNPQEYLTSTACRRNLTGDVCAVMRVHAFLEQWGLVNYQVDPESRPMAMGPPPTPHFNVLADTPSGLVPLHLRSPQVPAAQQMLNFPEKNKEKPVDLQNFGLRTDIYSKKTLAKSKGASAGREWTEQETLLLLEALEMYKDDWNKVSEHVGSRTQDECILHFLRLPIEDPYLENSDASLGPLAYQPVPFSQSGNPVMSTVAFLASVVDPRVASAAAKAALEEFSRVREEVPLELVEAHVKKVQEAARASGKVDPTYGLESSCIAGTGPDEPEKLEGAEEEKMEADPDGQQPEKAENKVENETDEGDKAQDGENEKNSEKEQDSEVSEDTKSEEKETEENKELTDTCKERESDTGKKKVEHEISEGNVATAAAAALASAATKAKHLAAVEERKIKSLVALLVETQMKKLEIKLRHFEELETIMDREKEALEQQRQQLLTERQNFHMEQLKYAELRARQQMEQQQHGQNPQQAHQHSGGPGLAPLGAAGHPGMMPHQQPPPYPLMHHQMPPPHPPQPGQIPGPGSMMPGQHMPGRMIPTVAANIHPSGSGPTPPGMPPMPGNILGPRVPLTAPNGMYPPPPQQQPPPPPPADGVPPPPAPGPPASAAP
UniProt P51532: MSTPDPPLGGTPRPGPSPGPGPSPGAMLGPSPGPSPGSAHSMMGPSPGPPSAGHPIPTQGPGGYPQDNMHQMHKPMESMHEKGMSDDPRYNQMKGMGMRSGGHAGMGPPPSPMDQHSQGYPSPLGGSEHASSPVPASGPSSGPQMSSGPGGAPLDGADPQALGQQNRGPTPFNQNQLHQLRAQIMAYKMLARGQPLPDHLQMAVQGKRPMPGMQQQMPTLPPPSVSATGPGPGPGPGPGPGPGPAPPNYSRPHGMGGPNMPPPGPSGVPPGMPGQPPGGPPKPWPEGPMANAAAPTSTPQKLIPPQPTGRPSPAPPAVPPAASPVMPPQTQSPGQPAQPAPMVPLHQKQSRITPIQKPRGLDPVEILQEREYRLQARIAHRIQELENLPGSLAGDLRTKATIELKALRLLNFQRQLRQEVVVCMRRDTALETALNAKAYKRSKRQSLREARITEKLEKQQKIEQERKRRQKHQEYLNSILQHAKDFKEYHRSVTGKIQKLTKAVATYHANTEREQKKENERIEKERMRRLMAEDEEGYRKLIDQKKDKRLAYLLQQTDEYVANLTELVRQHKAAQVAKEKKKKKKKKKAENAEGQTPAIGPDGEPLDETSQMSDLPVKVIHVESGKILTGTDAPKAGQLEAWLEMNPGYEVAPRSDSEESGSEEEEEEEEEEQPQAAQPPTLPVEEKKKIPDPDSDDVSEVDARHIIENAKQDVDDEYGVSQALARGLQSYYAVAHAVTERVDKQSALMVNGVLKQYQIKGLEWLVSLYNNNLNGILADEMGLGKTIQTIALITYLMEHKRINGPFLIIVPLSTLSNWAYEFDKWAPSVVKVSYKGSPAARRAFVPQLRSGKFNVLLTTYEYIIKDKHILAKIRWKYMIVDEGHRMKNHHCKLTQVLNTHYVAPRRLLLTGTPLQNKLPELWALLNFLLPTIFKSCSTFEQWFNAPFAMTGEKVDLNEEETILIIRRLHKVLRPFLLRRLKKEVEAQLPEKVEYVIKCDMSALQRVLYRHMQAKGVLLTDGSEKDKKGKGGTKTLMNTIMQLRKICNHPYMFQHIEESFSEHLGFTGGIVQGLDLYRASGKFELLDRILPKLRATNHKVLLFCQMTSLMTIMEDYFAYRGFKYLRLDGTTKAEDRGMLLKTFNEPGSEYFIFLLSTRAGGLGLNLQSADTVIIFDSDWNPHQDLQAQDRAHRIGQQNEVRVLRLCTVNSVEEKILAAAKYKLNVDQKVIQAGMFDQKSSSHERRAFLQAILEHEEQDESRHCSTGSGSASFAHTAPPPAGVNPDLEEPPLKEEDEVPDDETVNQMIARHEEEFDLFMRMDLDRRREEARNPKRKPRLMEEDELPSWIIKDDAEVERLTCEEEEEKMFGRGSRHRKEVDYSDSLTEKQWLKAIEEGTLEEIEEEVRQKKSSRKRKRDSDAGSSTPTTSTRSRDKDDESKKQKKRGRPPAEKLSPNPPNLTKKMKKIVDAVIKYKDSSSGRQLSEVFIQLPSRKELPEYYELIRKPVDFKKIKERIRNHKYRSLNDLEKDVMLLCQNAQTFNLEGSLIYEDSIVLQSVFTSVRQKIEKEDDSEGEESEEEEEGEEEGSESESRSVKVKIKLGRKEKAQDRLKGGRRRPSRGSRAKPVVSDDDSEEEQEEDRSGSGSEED
BRG1 clone from the yeast two-hybrid screen, amino acids 462–578: residues 462-578 of P51532
UniProt Q86U86: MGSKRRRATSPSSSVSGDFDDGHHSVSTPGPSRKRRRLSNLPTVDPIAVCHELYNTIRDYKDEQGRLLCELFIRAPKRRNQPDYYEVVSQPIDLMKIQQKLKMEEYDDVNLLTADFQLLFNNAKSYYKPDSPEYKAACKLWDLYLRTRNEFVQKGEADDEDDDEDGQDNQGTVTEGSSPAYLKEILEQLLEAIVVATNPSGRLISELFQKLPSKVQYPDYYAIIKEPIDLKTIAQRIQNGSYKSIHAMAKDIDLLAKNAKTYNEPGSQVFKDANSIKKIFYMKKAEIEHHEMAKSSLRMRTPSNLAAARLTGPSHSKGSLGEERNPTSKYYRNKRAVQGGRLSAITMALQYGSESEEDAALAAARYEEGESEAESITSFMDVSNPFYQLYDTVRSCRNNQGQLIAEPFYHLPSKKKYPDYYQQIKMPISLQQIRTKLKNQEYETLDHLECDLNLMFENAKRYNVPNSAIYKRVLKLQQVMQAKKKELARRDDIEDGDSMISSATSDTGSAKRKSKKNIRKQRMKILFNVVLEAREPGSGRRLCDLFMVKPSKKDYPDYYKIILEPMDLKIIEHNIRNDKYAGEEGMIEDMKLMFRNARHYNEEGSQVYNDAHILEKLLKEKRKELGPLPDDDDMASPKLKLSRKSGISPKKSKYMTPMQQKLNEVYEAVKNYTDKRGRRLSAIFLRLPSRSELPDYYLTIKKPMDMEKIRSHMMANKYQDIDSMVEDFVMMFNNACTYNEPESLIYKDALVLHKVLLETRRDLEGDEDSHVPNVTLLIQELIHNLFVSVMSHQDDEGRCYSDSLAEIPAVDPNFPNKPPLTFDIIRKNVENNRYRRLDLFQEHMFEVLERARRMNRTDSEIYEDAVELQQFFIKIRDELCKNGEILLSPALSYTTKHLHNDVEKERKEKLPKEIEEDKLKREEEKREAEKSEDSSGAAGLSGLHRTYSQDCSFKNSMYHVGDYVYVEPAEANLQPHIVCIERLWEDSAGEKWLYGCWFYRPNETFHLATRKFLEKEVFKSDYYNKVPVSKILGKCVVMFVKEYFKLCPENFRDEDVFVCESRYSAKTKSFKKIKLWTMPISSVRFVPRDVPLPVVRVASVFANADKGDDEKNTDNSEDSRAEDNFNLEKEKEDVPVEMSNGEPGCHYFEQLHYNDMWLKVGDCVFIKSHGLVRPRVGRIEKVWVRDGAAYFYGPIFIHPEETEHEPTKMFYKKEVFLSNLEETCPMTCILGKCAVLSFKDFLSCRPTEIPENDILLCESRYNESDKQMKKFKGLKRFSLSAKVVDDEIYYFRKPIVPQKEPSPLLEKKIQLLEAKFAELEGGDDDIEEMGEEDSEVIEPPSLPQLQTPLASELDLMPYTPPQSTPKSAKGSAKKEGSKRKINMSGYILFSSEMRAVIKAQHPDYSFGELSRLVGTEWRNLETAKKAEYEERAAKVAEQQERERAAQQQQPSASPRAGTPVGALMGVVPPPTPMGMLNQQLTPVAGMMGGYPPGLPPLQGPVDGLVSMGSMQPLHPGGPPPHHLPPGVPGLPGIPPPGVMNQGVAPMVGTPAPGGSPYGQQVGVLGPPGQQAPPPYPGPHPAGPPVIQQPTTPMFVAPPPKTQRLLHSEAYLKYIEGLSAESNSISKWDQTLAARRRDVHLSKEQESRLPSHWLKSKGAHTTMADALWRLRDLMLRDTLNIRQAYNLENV

These are yes or no findings as the source states them, for the method shown. For some assays here: In cells and extracts the contact can be indirect. Some binding calls cover weakened binding; strength is not graded here.

Consider eight substances from publication PMC3474740.

Regarding “BRG1 clone from the yeast two-hybrid screen, amino acids 462–578 (from UniProt P51532-1 462-578) (domain or fragment)”, the binding entry in test [1] was “no binding”; in test [2], “binds”; in test [3] it was “no binding”; in test [4] it was “no binding”; in test [5] it was “no binding”.

For the substance “BRG1 expressed in 293 cells (from UniProt P51532-1 1-1647)”, the binding result is “binds” with HA-tagged E2F6 (human); “no binding” with HA-tagged E2F3 (human); “binds” in test [6]; “binds” with HA-tagged E2F4 (human); “no binding” with HA-tagged E2F2 (human).

Regarding “E2F6 expressed in 293 cells (from UniProt O75461 1-281)”, the binding entry in test [7] and in test [6] was “binds” in each case.

As to “E2F6 overexpressed in T98G cells (from UniProt O75461 1-281)”, in test [8], the binding entry is given as “binds”.

“HA-tagged E2F6 (from UniProt O75461 1-281)”: the binding result with Flag-tagged BAF180 is “binds”.

As for “S^35-labeled in vitro-translated BRG1 (from UniProt P51532-1 1-1647)”, in [9], the binding result is recorded as “binds”.

Consider “endogenous BRG1 (from UniProt P51532 1-1647)”, for which the binding result in test [10] was “binds”.

Consider “flag-tagged BRG1 (from UniProt P51532-1 1-1647)”, for which the binding entry with HA-tagged E2F6 (human) was “binds”.
